Assay results published in article PMC10017685 (Nature Communications, 2023).
Read-outs that look alike come from different tables or passages of the source.

Columns and labels:
E. coli ATCC 25922 = format: cell-based, Escherichia coli
Description: (§1) Fresh cultures were used in antimicrobial assay. […] Moreover MBC was evaluated. […] All experiments were conducted in triplicate.

S. aureus ATCC 33591 = format: cell-based, Staphylococcus aureus; details: for S. aureus ATCC 33591 MIC: second experimental round, broth microdilution (CLSI), Mueller-Hinton Broth, 0.5 × 10^5 CFU/mL, 1-[…], 18 h at 37 °C
Description: as §1

E. coli ATCC 43827 = format: cell-based, Escherichia coli
P. aeruginosa ATCC 9027 = format: cell-based, Pseudomonas aeruginosa; details: triplicate; for P. aeruginosa ATCC 9027 MIC: second experimental round, broth microdilution (CLSI), Mueller-Hinton Broth, 0.5 × 10^5 CFU/mL, 1-[…], 18 h at 37 °C; for P. aeruginosa ATCC 9027 MBC: second round, MIC well and two higher concentrations seeded on agar plates, no visible colonies
Description: as §1

[1] = system: A. baumannii ATCC BAA 1605; format: cell-based, Acinetobacter baumannii; details: triplicate; for A. baumannii ATCC BAA 1605 MIC: second experimental round, broth microdilution (CLSI), Mueller-Hinton Broth, 0.5 × 10^5 CFU/mL, 1-[…], 18 h at 37 °C; for A. baumannii ATCC BAA 1605 MBC: second round, MIC well and two higher concentrations seeded on agar plates, no visible colonies
Description: as §1

Sheep red blood cells = test: Hemolysis assay (HC50); format: cell-based; details: for HC50 (µM/ml): sheep erythrocytes, recalculated from μg/mL values, estimated as in https://pubmed.ncbi.nlm.nih.gov/29307075/; for HC50: sheep red blood cells 4% (v/v) in PBS, peptides 1-[…], 60 min at 37 °C, hemoglobin release at 590 nm, 1% Triton-X 100 = 100% hemolysis, triplicate, HC50 by ic50.tk
Description: The hemolysis assay was conducted according to the procedure described previously. Sheep red blood cells (Defibrillated Sheep Blood, Graso, Poland) were used. […] Then the solution of RBCs was added to each well (100 μL with a 4% concentration of erythrocytes (v/v). The control wells for 0 and 100% hemolysis were also prepared: RBCs suspended in PBS and 1% of Triton-X 100, respectively. After that the plates were incubated for 60 min at 37 °C and then centrifuged at 800 × g for 10 min at 4 °C (Sorvall ST 16R Centrifuge, Thermo Scientific). The supernatant was carefully […] to new microtiter plates and the release of hemoglobin was measured at 590 nm (Multiskan™ GO Microplate Spectrophotometer, Thermo Scientific). Hemolysis for each concentration was calculated as the percentage of control with 100% hemolysis. All experiments were conducted in triplicate. The final values of HC50 were computed using ic50.tk tool.

[2] = second experimental round, broth microdilution (CLSI), Mueller-Hinton Broth, 0.5 × 10^5 CFU/mL, 1-[…], 18 h at 37 °C, triplicate
[3] = second round, MIC well and two higher concentrations seeded on agar plates, no visible colonies, triplicate

SMILES | E. coli ATCC 25922 MIC (E. coli ATCC 25922; [2]) [µg/mL] | E. coli ATCC 25922 MBC (E. coli ATCC 25922; [3]) [µg/mL] | S. aureus ATCC 33591 MIC (S. aureus ATCC 33591; triplicate) [µg/mL] | S. aureus ATCC 33591 MBC (S. aureus ATCC 33591; [3]) [µg/mL] | E. coli ATCC 43827 MIC (E. coli ATCC 43827; [2]) [µg/mL] | E. coli ATCC 43827 MBC (E. coli ATCC 43827; [3]) [µg/mL] | P. aeruginosa ATCC 9027 MIC (P. aeruginosa ATCC 9027) [µg/mL] | P. aeruginosa ATCC 9027 MBC (P. aeruginosa ATCC 9027) [µg/mL] | A. baumannii ATCC BAA 1605 MIC [1] [µg/mL] | A. baumannii ATCC BAA 1605 MBC [1] [µg/mL] | HC50 (µM/ml) (Sheep red blood cells) | E. coli ATCC 25922 MBC (E. coli ATCC 25922) [µg/mL] | E. coli ATCC 25922 MIC (E. coli ATCC 25922) [µg/mL] | S. aureus ATCC 33591 MBC (S. aureus ATCC 33591) [µg/mL] | E. coli ATCC 43827 MBC (E. coli ATCC 43827) [µg/mL] | E. coli ATCC 43827 MIC (E. coli ATCC 43827) [µg/mL] | HC50 (Sheep red blood cells) [µg/mL]
CC[C@H](C)[C@H](NC(=O)[C@H](Cc1ccccc1)NC(=O)[C@H](CCCCN)NC(=O)[C@H](CC(N)=O)NC(=O)[C@H](CC(C)C)NC(=O)[C@H](CCC(N)=O)NC(=O)CN)C(=O)N[C@@H](CCCCN)C(=O)N[C@@H](CCCCN)C(=O)N[C@@H](C)C(=O)N[C@@H](Cc1c[nH]c2ccccc12)C(=O)N[C@@H](CCCNC(=N)N)C(=O)N[C@@H](CCCCN)C(=O)N[C@@H](Cc1ccccc1)C(=O)N[C@@H](Cc1ccccc1)C(=O)N[C@@H](CCC(=O)O)C(=O)N[C@@H](CCCCN)C(=O)N[C@@H](Cc1ccccc1)C(=O)N[C@@H](C)C(=O)N[C@@H](CCCCN)C(N)=O [Armaganan] | 8 | 8 | 64 | 128 | 8 | 8 | 32 | 128 | 4 | 4 | >149 |  |  |  |  |  | 
CC[C@H](C)[C@H](N)C(=O)NCC(=O)N[C@@H](CCCCN)C(=O)N[C@@H](CC(C)C)C(=O)N[C@@H](Cc1ccccc1)C(=O)N[C@@H](CCCCN)C(=O)N[C@@H](CCCNC(=N)N)C(=O)N[C@H](C(=O)N[C@H](C(=O)N[C@@H](CCC(=O)O)C(=O)N[C@@H](CCCNC(=N)N)C(=O)N[C@H](C(=O)N[C@@H](CCCNC(=N)N)C(=O)N[C@@H](CCCNC(=N)N)C(=O)N[C@@H](Cc1ccccc1)C(=O)N[C@H](C(=O)N[C@@H](CCCNC(=N)N)C(=O)N[C@@H](CO)C(=O)N[C@@H](Cc1ccccc1)C(=O)N[C@@H](CC(C)C)C(=O)N[C@@H](CCCNC(=N)N)C(=O)N[C@H](C(=O)N[C@@H](CC(C)C)C(=O)N[C@@H](CCCNC(=N)N)C(N)=O)[C@@H](C)O)C(C)C)[C@@H](C)CC)C(C)C)[C@@H](C)CC [Papan] | 64 | 128 | 32 | 32 | 32 | 64 | 128 | 128 | 32 | 32 | 74 | 128 | 64 | 32 | 64 | 32 | 310
CC[C@H](C)[C@H](NC(=O)[C@H](CC(C)C)NC(=O)[C@H](CCCNC(=N)N)NC(=O)CN)C(=O)N[C@@H](CCCCN)C(=O)N[C@@H](Cc1ccccc1)C(=O)N[C@H](C(=O)N[C@@H](CCCCN)C(=O)N[C@@H](CCCCN)C(=O)N[C@@H](C)C(=O)N[C@@H](Cc1c[nH]c2ccccc12)C(=O)N[C@@H](CCCNC(=N)N)C(=O)N[C@@H](CCCCN)C(=O)N[C@@H](Cc1ccccc1)C(=O)N[C@H](C(=O)N[C@@H](CCC(=O)O)C(=O)N[C@@H](CCCCN)C(=O)N[C@@H](Cc1ccccc1)C(=O)N[C@@H](C)C(=O)N[C@@H](CCCCN)C(N)=O)[C@@H](C)CC)[C@@H](C)CC [Olabogan] | 64 | 64 | 32 | 32 | 32 | 32 | 64 | 128 | 32 | 32 | 18 |  |  |  |  |  | 65
